Measurements from PMC5021942.
These are yes or no findings as the source states them, for the method shown. For some of these results: In cells and extracts the contact can be indirect. Some binding calls cover weakened binding; strength is not graded here. For some of these results: Tags and fused reporters may be left off the sequences shown. One block for each binder: values may come before it.

Experiments:
[1] = biological target: T1, human Hook2 (overexpressed) (human) (UniProt Q96ED9); test: co-IP; HEK cells transiently transfected with HA::PAR6α and/or human Hook2, lysed after one day; immunoprecipitation with mouse anti-HA or rat anti-Hook2, immunoblot with rabbit anti-Hook2 and anti-HA
T1 sequence: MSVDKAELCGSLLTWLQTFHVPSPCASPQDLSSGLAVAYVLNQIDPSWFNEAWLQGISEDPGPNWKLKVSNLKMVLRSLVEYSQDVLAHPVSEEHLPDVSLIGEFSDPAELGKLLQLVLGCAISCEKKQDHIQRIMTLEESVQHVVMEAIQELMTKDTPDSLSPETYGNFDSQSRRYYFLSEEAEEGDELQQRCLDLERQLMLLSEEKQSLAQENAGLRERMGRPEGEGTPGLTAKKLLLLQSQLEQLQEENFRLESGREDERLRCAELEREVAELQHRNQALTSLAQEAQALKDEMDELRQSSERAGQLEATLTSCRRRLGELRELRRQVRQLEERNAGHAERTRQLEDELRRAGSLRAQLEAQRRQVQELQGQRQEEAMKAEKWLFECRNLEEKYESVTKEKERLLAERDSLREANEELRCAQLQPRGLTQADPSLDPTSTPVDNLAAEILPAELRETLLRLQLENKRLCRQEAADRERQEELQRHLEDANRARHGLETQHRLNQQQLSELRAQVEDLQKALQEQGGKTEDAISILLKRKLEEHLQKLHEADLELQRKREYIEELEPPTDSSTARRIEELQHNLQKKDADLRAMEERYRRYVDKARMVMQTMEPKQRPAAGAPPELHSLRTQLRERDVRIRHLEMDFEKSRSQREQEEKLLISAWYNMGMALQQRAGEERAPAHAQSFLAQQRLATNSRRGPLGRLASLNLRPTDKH

[2] = biological target: T2, endogenous human Hook2 (HEK cells) (human (endogenous in HEK)) (UniProt Q96ED9); test: as above
T2 sequence: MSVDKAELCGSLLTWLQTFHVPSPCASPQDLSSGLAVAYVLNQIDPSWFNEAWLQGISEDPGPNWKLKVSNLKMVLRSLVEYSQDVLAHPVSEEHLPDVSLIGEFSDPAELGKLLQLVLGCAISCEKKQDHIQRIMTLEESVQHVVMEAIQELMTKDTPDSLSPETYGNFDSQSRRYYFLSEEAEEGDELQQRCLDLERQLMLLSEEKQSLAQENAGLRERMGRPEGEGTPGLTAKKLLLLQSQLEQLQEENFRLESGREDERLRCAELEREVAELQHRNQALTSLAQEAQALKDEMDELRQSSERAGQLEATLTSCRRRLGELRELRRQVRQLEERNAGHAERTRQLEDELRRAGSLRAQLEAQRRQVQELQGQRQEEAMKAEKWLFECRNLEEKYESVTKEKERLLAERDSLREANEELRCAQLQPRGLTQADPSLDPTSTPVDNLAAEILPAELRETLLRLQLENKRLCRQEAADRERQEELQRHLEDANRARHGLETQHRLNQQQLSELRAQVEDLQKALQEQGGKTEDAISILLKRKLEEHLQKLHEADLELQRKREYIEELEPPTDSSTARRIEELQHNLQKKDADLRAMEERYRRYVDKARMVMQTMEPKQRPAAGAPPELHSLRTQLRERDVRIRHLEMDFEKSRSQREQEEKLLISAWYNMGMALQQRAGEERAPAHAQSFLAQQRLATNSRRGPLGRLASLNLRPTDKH

[3] = biological target: T3, human Hook2 Cter (amino acids 438 to 719), LexA two-hybrid bait (human) (UniProt Q96ED9); test: two-hybrid; L40 yeast, LexA system; Hook2 Cter in pBTM116 as bait, PAR6α variants in pACT2; selection without tryptophan, leucine and histidine with 10 mM and 5 mM 3-aminotriazole; second selection on X-Gal medium
T3 sequence: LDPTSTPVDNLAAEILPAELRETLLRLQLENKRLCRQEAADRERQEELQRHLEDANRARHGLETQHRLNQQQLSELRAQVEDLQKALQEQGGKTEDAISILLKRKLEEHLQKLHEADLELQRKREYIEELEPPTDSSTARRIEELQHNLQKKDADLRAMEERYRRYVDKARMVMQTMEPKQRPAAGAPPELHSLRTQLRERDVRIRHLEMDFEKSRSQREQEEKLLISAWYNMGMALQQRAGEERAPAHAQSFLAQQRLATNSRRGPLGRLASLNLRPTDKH

[4] = biological target: T4, human HA-PAR6α (human) (UniProt Q9NPB6); test: co-IP; HEK cells transiently transfected with HA::PAR6α and/or human Hook2, lysed after one day; immunoprecipitation with mouse anti-HA or rat anti-Hook2, immunoblot with rabbit anti-Hook2 and anti-HA
T4 sequence: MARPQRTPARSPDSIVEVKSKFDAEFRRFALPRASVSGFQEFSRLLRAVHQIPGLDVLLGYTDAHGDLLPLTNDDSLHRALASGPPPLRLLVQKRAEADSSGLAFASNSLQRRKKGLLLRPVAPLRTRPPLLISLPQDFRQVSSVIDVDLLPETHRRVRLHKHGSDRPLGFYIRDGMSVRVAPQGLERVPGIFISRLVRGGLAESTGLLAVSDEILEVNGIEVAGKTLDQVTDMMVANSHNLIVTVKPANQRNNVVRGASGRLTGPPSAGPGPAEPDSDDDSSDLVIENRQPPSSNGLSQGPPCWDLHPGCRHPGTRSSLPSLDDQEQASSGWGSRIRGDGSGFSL

[5] = biological target: T5, GST-PAR6α Nter K19A (human) (UniProt Q9NPB6); test: pull-down; GST fusion proteins or GST alone incubated with lysates of MCF7 cells transfected with siCT or siHook2 for 3 days; immunoblot; only the target purified
T5 sequence: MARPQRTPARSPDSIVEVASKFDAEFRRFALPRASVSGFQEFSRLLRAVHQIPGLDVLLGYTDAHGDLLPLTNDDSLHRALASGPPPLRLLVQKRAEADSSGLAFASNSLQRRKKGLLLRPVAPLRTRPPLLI

[6] = biological target: T6, GST-PAR6α Nter (1–133 amino acids) (human) (UniProt Q9NPB6); test: as above
T6 sequence: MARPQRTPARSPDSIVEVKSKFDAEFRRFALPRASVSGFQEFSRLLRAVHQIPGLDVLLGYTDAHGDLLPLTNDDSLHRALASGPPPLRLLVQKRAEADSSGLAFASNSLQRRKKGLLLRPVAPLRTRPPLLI

binding [1]: binds
binding [2]: binds
B1: human HA-PAR6α (protein, UniProt Q9NPB6 1-346)
chain: MARPQRTPARSPDSIVEVKSKFDAEFRRFALPRASVSGFQEFSRLLRAVHQIPGLDVLLGYTDAHGDLLPLTNDDSLHRALASGPPPLRLLVQKRAEADSSGLAFASNSLQRRKKGLLLRPVAPLRTRPPLLISLPQDFRQVSSVIDVDLLPETHRRVRLHKHGSDRPLGFYIRDGMSVRVAPQGLERVPGIFISRLVRGGLAESTGLLAVSDEILEVNGIEVAGKTLDQVTDMMVANSHNLIVTVKPANQRNNVVRGASGRLTGPPSAGPGPAEPDSDDDSSDLVIENRQPPSSNGLSQGPPCWDLHPGCRHPGTRSSLPSLDDQEQASSGWGSRIRGDGSGFSL

binding [3]: binds
B2: human PAR6α WT, two-hybrid prey (protein, UniProt Q9NPB6 1-346)
chain: MARPQRTPARSPDSIVEVKSKFDAEFRRFALPRASVSGFQEFSRLLRAVHQIPGLDVLLGYTDAHGDLLPLTNDDSLHRALASGPPPLRLLVQKRAEADSSGLAFASNSLQRRKKGLLLRPVAPLRTRPPLLISLPQDFRQVSSVIDVDLLPETHRRVRLHKHGSDRPLGFYIRDGMSVRVAPQGLERVPGIFISRLVRGGLAESTGLLAVSDEILEVNGIEVAGKTLDQVTDMMVANSHNLIVTVKPANQRNNVVRGASGRLTGPPSAGPGPAEPDSDDDSSDLVIENRQPPSSNGLSQGPPCWDLHPGCRHPGTRSSLPSLDDQEQASSGWGSRIRGDGSGFSL

binding [3]: no binding
B3: human PAR6α PDZ, two-hybrid prey (domain or fragment, UniProt Q9NPB6 157-250)
chain: RVRLHKHGSDRPLGFYIRDGMSVRVAPQGLERVPGIFISRLVRGGLAESTGLLAVSDEILEVNGIEVAGKTLDQVTDMMVANSHNLIVTVKPAN

binding [4]: binds
B4: human Hook2 (overexpressed) (protein, UniProt Q96ED9 1-719)
chain: MSVDKAELCGSLLTWLQTFHVPSPCASPQDLSSGLAVAYVLNQIDPSWFNEAWLQGISEDPGPNWKLKVSNLKMVLRSLVEYSQDVLAHPVSEEHLPDVSLIGEFSDPAELGKLLQLVLGCAISCEKKQDHIQRIMTLEESVQHVVMEAIQELMTKDTPDSLSPETYGNFDSQSRRYYFLSEEAEEGDELQQRCLDLERQLMLLSEEKQSLAQENAGLRERMGRPEGEGTPGLTAKKLLLLQSQLEQLQEENFRLESGREDERLRCAELEREVAELQHRNQALTSLAQEAQALKDEMDELRQSSERAGQLEATLTSCRRRLGELRELRRQVRQLEERNAGHAERTRQLEDELRRAGSLRAQLEAQRRQVQELQGQRQEEAMKAEKWLFECRNLEEKYESVTKEKERLLAERDSLREANEELRCAQLQPRGLTQADPSLDPTSTPVDNLAAEILPAELRETLLRLQLENKRLCRQEAADRERQEELQRHLEDANRARHGLETQHRLNQQQLSELRAQVEDLQKALQEQGGKTEDAISILLKRKLEEHLQKLHEADLELQRKREYIEELEPPTDSSTARRIEELQHNLQKKDADLRAMEERYRRYVDKARMVMQTMEPKQRPAAGAPPELHSLRTQLRERDVRIRHLEMDFEKSRSQREQEEKLLISAWYNMGMALQQRAGEERAPAHAQSFLAQQRLATNSRRGPLGRLASLNLRPTDKH

binding [5]: no binding
binding [6]: binds
B5: endogenous Hook2 (MCF7 cells) (protein, UniProt Q96ED9 1-719)
chain: MSVDKAELCGSLLTWLQTFHVPSPCASPQDLSSGLAVAYVLNQIDPSWFNEAWLQGISEDPGPNWKLKVSNLKMVLRSLVEYSQDVLAHPVSEEHLPDVSLIGEFSDPAELGKLLQLVLGCAISCEKKQDHIQRIMTLEESVQHVVMEAIQELMTKDTPDSLSPETYGNFDSQSRRYYFLSEEAEEGDELQQRCLDLERQLMLLSEEKQSLAQENAGLRERMGRPEGEGTPGLTAKKLLLLQSQLEQLQEENFRLESGREDERLRCAELEREVAELQHRNQALTSLAQEAQALKDEMDELRQSSERAGQLEATLTSCRRRLGELRELRRQVRQLEERNAGHAERTRQLEDELRRAGSLRAQLEAQRRQVQELQGQRQEEAMKAEKWLFECRNLEEKYESVTKEKERLLAERDSLREANEELRCAQLQPRGLTQADPSLDPTSTPVDNLAAEILPAELRETLLRLQLENKRLCRQEAADRERQEELQRHLEDANRARHGLETQHRLNQQQLSELRAQVEDLQKALQEQGGKTEDAISILLKRKLEEHLQKLHEADLELQRKREYIEELEPPTDSSTARRIEELQHNLQKKDADLRAMEERYRRYVDKARMVMQTMEPKQRPAAGAPPELHSLRTQLRERDVRIRHLEMDFEKSRSQREQEEKLLISAWYNMGMALQQRAGEERAPAHAQSFLAQQRLATNSRRGPLGRLASLNLRPTDKH
